According to publication PMC6380292:
No constants are given. Whether binding was seen depends on the method and setting. Some entries that bind do so weakly or less than the wild type. Tags and fused reporters may be left off the sequences shown. Blank lines part the entries; values can stand above or below the binder they belong to.

Protein sequences, listed by entry. Tags and fused reporters are not part of them.
UniProt P32598: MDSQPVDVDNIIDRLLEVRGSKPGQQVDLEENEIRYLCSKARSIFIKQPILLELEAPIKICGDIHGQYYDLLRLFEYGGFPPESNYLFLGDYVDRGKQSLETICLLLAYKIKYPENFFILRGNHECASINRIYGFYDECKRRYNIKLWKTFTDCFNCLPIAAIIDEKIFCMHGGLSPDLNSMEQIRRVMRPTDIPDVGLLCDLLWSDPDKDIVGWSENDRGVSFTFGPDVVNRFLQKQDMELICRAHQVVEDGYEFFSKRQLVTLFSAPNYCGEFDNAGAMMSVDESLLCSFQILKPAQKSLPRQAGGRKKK

Key:
[1] = target: T1, MBP-hSnu114-ΔN (human Snu114, 130-972 aa) (human) (UniProt Q15029); test: pull-down; MBP-hSnu114-ΔN (15 pmol, 45 nM) incubated with 33 μM GTPγS or GDP or no nucleotide, then 15 pmol GST-Cwc21 or GST-PP1; amylose beads; anti-GST HRP blot; both purified
T1 sequence: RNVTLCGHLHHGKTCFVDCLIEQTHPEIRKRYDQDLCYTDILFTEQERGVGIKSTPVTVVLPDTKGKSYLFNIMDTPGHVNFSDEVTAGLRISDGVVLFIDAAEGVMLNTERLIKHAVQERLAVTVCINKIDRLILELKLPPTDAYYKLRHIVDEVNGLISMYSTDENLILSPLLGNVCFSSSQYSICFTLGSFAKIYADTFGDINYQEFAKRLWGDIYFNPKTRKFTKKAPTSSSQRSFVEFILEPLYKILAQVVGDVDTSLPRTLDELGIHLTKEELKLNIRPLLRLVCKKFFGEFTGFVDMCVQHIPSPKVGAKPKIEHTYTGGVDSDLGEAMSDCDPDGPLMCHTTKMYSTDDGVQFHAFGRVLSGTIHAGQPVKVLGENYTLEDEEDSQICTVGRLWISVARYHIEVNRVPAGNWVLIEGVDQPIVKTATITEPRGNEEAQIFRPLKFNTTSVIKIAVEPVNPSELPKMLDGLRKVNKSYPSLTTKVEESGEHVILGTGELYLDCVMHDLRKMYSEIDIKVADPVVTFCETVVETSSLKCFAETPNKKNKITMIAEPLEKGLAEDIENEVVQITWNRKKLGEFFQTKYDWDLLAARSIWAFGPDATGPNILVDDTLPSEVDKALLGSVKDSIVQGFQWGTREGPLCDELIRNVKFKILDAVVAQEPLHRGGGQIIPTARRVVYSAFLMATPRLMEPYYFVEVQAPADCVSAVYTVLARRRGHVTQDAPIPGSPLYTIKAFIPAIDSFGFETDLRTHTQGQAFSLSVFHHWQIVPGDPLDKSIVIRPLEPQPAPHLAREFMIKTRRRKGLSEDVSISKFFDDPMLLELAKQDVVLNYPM

[2] = target: Glc7, the yeast PP1c protein, fused to the Gal4-activating domain (Saccharomyces cerevisiae) (UniProt P32598); test: two-hybrid; LexA DNA binding domain fusion (pBTM116) and Gal4-activating domain fusion (pACT2) in yeast L40∆G, LexAop-HIS3 reporter, -L-W-H plates with 40 mM 3AT

binding [1]: binds
B1: GST-Cwc21 (protein, UniProt Q03375 1-135)
chain: MSYNGIGLKSAKGSSTSGHVQRSLASNNRRRPQGSQQQRQQRQNAIKKASHDKASRPLAVQKQIETHMEKREIEVQVSELRDRLEEEETLSEEQIDKKCEALRAKLTNEWQEQQRMSSLYTPRKARLTEEQHRHE

binding [2]: binds
B2: Full-length Snu114 fused to LexA DNA binding domain (protein, UniProt P36048 1-1008)
chain: MEGDDLFDEFGNLIGVDPFDSDEEESVLDEQEQYQTNTFEGSGNNNEIESRQLTSLGSKKELGISLEHPYGKEVEVLMETKNTQSPQTPLVEPVTERTKLQEHTIFTQLKKNIPKTRYNRDYMLSMANIPERIINVGVIGPLHSGKTSLMDLLVIDSHKRIPDMSKNVELGWKPLRYLDNLKQEIDRGLSIKLNGSTLLCTDLESKSRMINFLDAPGHVNFMDETAVALAASDLVLIVIDVVEGVTFVVEQLIKQSIKNNVAMCFVINKLDRLILDLKLPPMDAYLKLNHIIANINSFTKGNVFSPIDNNIIFASTKLGFTFTIKEFVSYYYAHSIPSSKIDDFTTRLWGSVYYHKGNFRTKPFENVEKYPTFVEFILIPLYKIFSYALSMEKDKLKNLLRSNFRVNLSQEALQYDPQPFLKHVLQLIFRQQTGLVDAITRCYQPFELFDNKTAHLSIPGKSTPEGTLWAHVLKTVDYGGAEWSLVRIYSGLLKRGDTVRILDTSQSESRQKRQLHDISKTETSNEDEDEDDETPSCEVEEIGLLGGRYVYPVHEAHKGQIVLIKGISSAYIKSATLYSVKSKEDMKQLKFFKPLDYITEAVFKIVLQPLLPRELPKLLDALNKISKYYPGVIIKVEESGEHVILGNGELYMDCLLYDLRASYAKIEIKISDPLTVFSESCSNESFASIPVSNSISRLGEENLPGLSISVAAEPMDSKMIQDLSRNTLGKGQNCLDIDGIMDNPRKLSKILRTEYGWDSLASRNVWSFYNGNVLINDTLPDEISPELLSKYKEQIIQGFYWAVKEGPLAEEPIYGVQYKLLSISVPSDVNIDVMKSQIIPLMKKACYVGLLTAIPILLEPIYEVDITVHAPLLPIVEELMKKRRGSRIYKTIKVAGTPLLEVRGQVPVIESAGFETDLRLSTNGLGMCQLYFWHKIWRKVPGDVLDKDAFIPKLKPAPINSLSRDFVMKTRRRKGISTGGFMSNDGPTLEKYISAELYAQLRENGLVP
